Test results: US20210147571A1, “MONOCLONAL ANTIBODY TARGETING HUMAN TUMOR STEM CELLS AND USE THEREOF” (Suzhou Bojuhua Biomedical Technology Co. Ltd, priority 2017, published 2021)

Legend:
[1] = system: Bel7402-V13 cells; experiment: flow immunofluorescence, positive cells in parental and sphere cells; format: binding, human
Description: (§1) The human liver cancer cell line Bel7402-V13 and MHCC97L cells were cultured for 5 days in a serum-free manner, and the Hetumomab^+ cells in the parental cells and in the cells from sphere culture were detected by viable cell flow fluorescence cytometry. […] That is, after serum-free culture, Hetumomab^+ cells of the liver cancer cell line were enriched.
(§2) As described above, four cell lines, SNU-5, BGC-823, MHCC-97L, and BEL7402 V13, were used to harvest both parental cells and tumor-stem-cell-rich sphere cells. […] The results are as follows:
(§3) According to the aforementioned method, four cell lines, SNU-5, BGC-823, MHCC-97L, and BEL7402 V13, were used to harvest both parental cells and tumor-stem-cell-rich sphere cells. […]

[2] = system: MHCC97L cells; experiment: as above; format: binding, human
Description: as §1, §2, §3

[3] = system: BGC-823 cells; experiment: as above; format: binding, human
Description: as §1, with “gastric” for “liver”, “SNU-5” for “Bel7402-V13”, “BGC-823” for “MHCC97L”, “after the” for “after”
as §2, §3

[4] = system: SNU-5 cells; experiment: as above; format: binding, human
Description: as §1, with “gastric” for “liver”, “SNU-5” for “Bel7402-V13”, “BGC-823” for “MHCC97L”, “after the” for “after”
as §2, §3

[5] = system: BGC-823 sphere cells; experiment: sphere-forming inhibition (self-renewal); format: cell-based, human
Description: (§4) The main manifestation of the self-renewal ability of tumor stem cells is the ability to form spheres in serum-free medium, which is called asymmetric division, that is, when one cell divides into two daughter cells, one of the daughter cells maintains the same features as the parental cell, while the other daughter cell may continue to divide, forming normal daughter cells. […] And then Hetumomab (250 μg/mL) was used as the experimental group, and the PBS was used as a negative control group to incubate with the cells at 37° C. for 2 h, during which the cells were mixed with the antibody or the negative control once every half an hour. 500 cells in each group were inoculated into a semi-solid sphere medium (containing EGF, LIF, bFGF, etc.) containing 0.8% methylcellulose, and cultured in an ultra-low adhesion 24-well plate. 1-1.5 mL liquid medium was added every other day, and the number of spheres formed from the two groups was observed after 14 days.

[6] = system: Bel7402-V13 sphere cells; experiment: sphere-forming inhibition (self-renewal); format: cell-based, human
Description: as §4

[7] = system: MHCC-97L sphere cells; experiment: sphere-forming inhibition (self-renewal); format: cell-based, human
Description: as §4

[8] = system: SNU-5 sphere cells; experiment: sphere-forming inhibition (self-renewal); format: cell-based, human
Description: as §4

[9] = BGC-823, antibody 10 ug/ml, Table 27
[10] = BGC-823, antibody 10 ug/ml, Table 33
[11] = BGC-823, antibody 20 ug/ml, Table 27
[12] = BGC-823, antibody 20 ug/ml, Table 33
[13] = BGC-823, antibody 40 ug/ml, Table 27
[14] = BGC-823, antibody 40 ug/ml, Table 33
[15] = BGC-823, antibody 80 ug/ml, Table 27
[16] = BGC-823, antibody 80 ug/ml, Table 33
[17] = BGC-823, antibody 144 ug/ml, Table 27
[18] = BGC-823, antibody 160 ug/ml, Table 33
[19] = BEL7402 V13, antibody 10 ug/ml, Table 27
[20] = BEL7402 V13, antibody 10 ug/ml, Table 33
[21] = BEL7402 V13, antibody 20 ug/ml, Table 27
[22] = BEL7402 V13, antibody 20 ug/ml, Table 33
[23] = BEL7402 V13, antibody 40 ug/ml, Table 27
[24] = BEL7402 V13, antibody 40 ug/ml, Table 33
[25] = BEL7402 V13, antibody 80 ug/ml, Table 27
[26] = BEL7402 V13, antibody 80 ug/ml, Table 33
[27] = BEL7402 V13, antibody 144 ug/ml, Table 27
[28] = BEL7402 V13, antibody 160 ug/ml, Table 33
[29] = SNU-5, antibody 10 ug/ml, Table 27
[30] = SNU-5, antibody 10 ug/ml, Table 33
[31] = SNU-5, antibody 20 ug/ml, Table 27
[32] = SNU-5, antibody 20 ug/ml, Table 33
[33] = SNU-5, antibody 40 ug/ml, Table 27
[34] = SNU-5, antibody 40 ug/ml, Table 33
[35] = SNU-5, antibody 80 ug/ml, Table 27
[36] = SNU-5, antibody 80 ug/ml, Table 33
[37] = SNU-5, antibody 144 ug/ml, Table 27
[38] = SNU-5, antibody 160 ug/ml, Table 33

B1: Hetumomab: mouse monoclonal antibody (IgG1, κ) against human tumor stem cells, hybridoma CGMCC NO. 12251; VL SEQ ID NO:1, VH SEQ ID NO:5 (antibody, V domains shown)
VH: QVTLKESGPGILQPSQTLSLTCSFSGFSLSTSGMGVSWIRQPSGKGLEWLAHIYWDDDKRYNPSLKSRLTISKDSSNNQVFLKITSVDTADTATYYCARSFYYYANNSFAYWGQGTLVTVSS
VL: DIVMTQAAFSNPVTLGTSASISCRSSKSLLHSNGITYLYWFLQKPGQSPQLLIYQMSNLASGVPDRFSSSGSGTDFTLRISRVEAEDVGVYYCAQNLELYTFGGGTKLEIK
modifications: Hetumomab heavy chain variable region; Hetumomab light chain variable region
What does the source list for B1?
Fold Enrichment ([1]; BEL7402 V13, Table 26): 1.6; positive rate, Parental Cells ([1]; BEL7402 V13, Table 26): 7.59%; positive rate, Sphere Cells ([1]; BEL7402 V13, Table 26): 12%; ratio of positive cells, Cells from Sphere Culture ([1]; Bel7402-V13, 5 days serum-free, Table 4): 8.92%; ratio of positive cells, Parental Cells ([1]; Bel7402-V13, Table 4): 2.25%; Fold Enrichment ([1]; Bel7402-V13, sphere vs parental, Table 4): 3.96; Fold Enrichment ([2]; MHCC97L, Table 4): 2.18; ratio of positive cells, Cells from Sphere Culture ([2]; MHCC97L, Table 4): 7.51%; ratio of positive cells, Parental Cells ([2]; MHCC97L, Table 4): 3.45%; Fold Enrichment ([2]; MHCC-97L, Table 26): 2.2; positive rate, Parental Cells ([2]; MHCC-97L, Table 26): 7.38%; positive rate, Sphere Cells ([2]; MHCC-97L, Table 26): 15.98%; Fold Enrichment ([3]; BGC-823, Table 6): 2.53; ratio of positive cells, Cells from Sphere Culture ([3]; BGC-823, Table 6): 7.45%; ratio of positive cells, Parental Cells ([3]; BGC-823, Table 6): 2.95%; Fold Enrichment ([3]; BGC-823, Table 26): 1.2; positive rate, Parental Cells ([3]; BGC-823, Table 26): 4.3%; positive rate, Sphere Cells ([3]; BGC-823, Table 26): 5%; Fold Enrichment ([4]; SNU-5, Table 6): 2.13; ratio of positive cells, Cells from Sphere Culture ([4]; SNU-5, Table 6): 7.19%; ratio of positive cells, Parental Cells ([4]; SNU-5, Table 6): 3.38%; Fold Enrichment ([4]; SNU-5, Table 26): 1.4; positive rate, Parental Cells ([4]; SNU-5, Table 26): 6.91%; positive rate, Sphere Cells ([4]; SNU-5, Table 26): 9.75%; Average number of formed spheres [5, 9]: 206; Inhibition Rate (%) [5, 9]: 13.1%; Average number of formed spheres [5, 10]: 211; Inhibition Rate (%) [5, 10]: 16.6%; Average number of formed spheres [5, 11]: 183; Inhibition Rate (%) [5, 11]: 22.8%; Average number of formed spheres [5, 12]: 190; Inhibition Rate (%) [5, 12]: 24.9%; Average number of formed spheres [5, 13]: 162; Inhibition Rate (%) [5, 13]: 31.6%; Average number of formed spheres [5, 14]: 176; Inhibition Rate (%) [5, 14]: 30.4%; Average number of formed spheres [5, 15]: 150; Inhibition Rate (%) [5, 15]: 36.7%; Average number of formed spheres [5, 16]: 156; Inhibition Rate (%) [5, 16]: 38.3%; Average number of formed spheres [5, 17]: 137.5; Inhibition Rate (%) [5, 17]: 42.0%; Average number of formed spheres [5, 18]: 130.5; Inhibition Rate (%) [5, 18]: 48.4%; Average number of formed spheres [6, 19]: 193.5; Inhibition Rate (%) [6, 19]: 14.8%; Average number of formed spheres [6, 20]: 192.5; Inhibition Rate (%) [6, 20]: 16.3%; Average number of formed spheres [6, 21]: 171; Inhibition Rate (%) [6, 21]: 24.7%; Average number of formed spheres [6, 22]: 172; Inhibition Rate (%) [6, 22]: 25.2%; Average number of formed spheres [6, 23]: 142.5; Inhibition Rate (%) [6, 23]: 37.2%; Average number of formed spheres [6, 24]: 150; Inhibition Rate (%) [6, 24]: 34.8%; Average number of formed spheres [6, 25]: 126.5; Inhibition Rate (%) [6, 25]: 44.3%; Average number of formed spheres [6, 26]: 124.5; Inhibition Rate (%) [6, 26]: 45.9%; Average number of formed spheres [6, 27]: 106.5; Inhibition Rate (%) [6, 27]: 53.1%; Average number of formed spheres [6, 28]: 101; Inhibition Rate (%) [6, 28]: 56.1%; inhibition ratio of sphere-formation ([6]; Hetumomab 250 μg/mL vs PBS): 23.9%; number of spheres formed ([6]; Hetumomab 250 μg/mL, 500 cells, 14 days): 212±2.8; Average number of formed spheres ([7]; antibody 10 ug/ml, Table 27): 194; Inhibition Rate (%) ([7]; antibody 10 ug/ml, Table 27): 16.4%; Average number of formed spheres ([7]; antibody 10 ug/ml, Table 33): 204; Inhibition Rate (%) ([7]; antibody 10 ug/ml, Table 33): 15.4%; Average number of formed spheres ([7]; antibody 20 ug/ml, Table 27): 170; Inhibition Rate (%) ([7]; antibody 20 ug/ml, Table 27): 26.7%; Average number of formed spheres ([7]; antibody 20 ug/ml, Table 33): 178; Inhibition Rate (%) ([7]; antibody 20 ug/ml, Table 33): 26.1%; Average number of formed spheres ([7]; antibody 40 ug/ml, Table 27): 155; Inhibition Rate (%) ([7]; antibody 40 ug/ml, Table 27): 33.2%; Average number of formed spheres ([7]; antibody 40 ug/ml, Table 33): 155; Inhibition Rate (%) ([7]; antibody 40 ug/ml, Table 33): 35.7%; Average number of formed spheres ([7]; antibody 80 ug/ml, Table 27): 141; Inhibition Rate (%) ([7]; antibody 80 ug/ml, Table 27): 39.2%; Average number of formed spheres ([7]; antibody 80 ug/ml, Table 33): 141; Inhibition Rate (%) ([7]; antibody 80 ug/ml, Table 33): 40.7%; Average number of formed spheres ([7]; antibody 144 ug/ml, Table 27): 121.5; Inhibition Rate (%) ([7]; antibody 144 ug/ml, Table 27): 47.6%; Average number of formed spheres ([7]; antibody 160 ug/ml, Table 33): 115; Inhibition Rate (%) ([7]; antibody 160 ug/ml, Table 33): 52.3%; Average number of formed spheres [8, 29]: 176.5; Inhibition Rate (%) [8, 29]: 15.6%; Average number of formed spheres [8, 30]: 212; Inhibition Rate (%) [8, 30]: 13.5%; Average number of formed spheres [8, 31]: 161; Inhibition Rate (%) [8, 31]: 23.0%; Average number of formed spheres [8, 32]: 190; Inhibition Rate (%) [8, 32]: 22.4%; Average number of formed spheres [8, 33]: 146; Inhibition Rate (%) [8, 33]: 30.1%; Average number of formed spheres [8, 34]: 164; Inhibition Rate (%) [8, 34]: 33.1%; Average number of formed spheres [8, 35]: 130; Inhibition Rate (%) [8, 35]: 37.8%; Average number of formed spheres [8, 36]: 147; Inhibition Rate (%) [8, 36]: 40.0%; Average number of formed spheres [8, 37]: 119; Inhibition Rate (%) [8, 37]: 43.1%; Average number of formed spheres [8, 38]: 115; Inhibition Rate (%) [8, 38]: 53.1%
